Drawing on article PMC10726135, this text covers binding signal (log2 normalized intensity) for 73 sequences.

The list shows a part of the results. At the low end of the ranking, values are background and their order means little. The protein was read in a cell extract, so binding may be indirect.

For this assay, the target named is T1, HNF4alpha8 (COS-7 nuclear extract) (UniProt P41235-5).
T1 sequence: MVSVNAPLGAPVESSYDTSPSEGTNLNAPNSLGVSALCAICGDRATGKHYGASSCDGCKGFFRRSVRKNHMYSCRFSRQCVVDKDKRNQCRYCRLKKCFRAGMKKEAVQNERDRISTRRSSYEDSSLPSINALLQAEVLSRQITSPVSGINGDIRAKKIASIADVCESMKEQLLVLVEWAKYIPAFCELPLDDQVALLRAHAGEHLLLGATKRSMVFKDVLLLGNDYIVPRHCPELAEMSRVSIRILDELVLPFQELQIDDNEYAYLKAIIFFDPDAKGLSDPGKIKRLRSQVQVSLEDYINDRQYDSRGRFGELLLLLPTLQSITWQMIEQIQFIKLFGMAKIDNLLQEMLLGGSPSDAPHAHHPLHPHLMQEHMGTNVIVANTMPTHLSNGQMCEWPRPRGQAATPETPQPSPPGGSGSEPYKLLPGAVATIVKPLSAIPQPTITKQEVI
The assay can be described thus: protein-binding microarray. To be noted: COS-7 nuclear extract on double-stranded Agilent 4x180k PBM; binding buffer, salt, pH and temperature not given; high values mean tight binding; double strand, one strand shown; sequences stand for … in …GCCTAGGGAGATTAGAGTATCGGTCGA
In the case of TGAGAGGTGCTGCATGGGCTGAGCCCAGCA, the binding signal (log2 normalized intensity) is -1.3.
As to CATGAGAAACATCCACATGTGGGTCCAAAG, the binding signal (log2 normalized intensity) was found to be 3.23.
For AACAGGGCTCCTGTTCAGCATAGTCCTGCC the value was -1.37.
For CCGCCTCTTGGCCTCCCCCTTCTGAGTCTC the value was 2.71; for TGGATCGCTTGGCTCAGGCCGGTTGGCCAG, -0.646; for CAGGACTGCGTAACTTACAGTGCACTTTGA, 5.6.
Consider TATCGCCCTTCTGTCAAGTCCAAAGTTCTT, for which the binding signal (log2 normalized intensity) is 5.2.
To AGAGAAGGGCTGAAGGTTAATTCGCTCATC belongs 0.837; to CCTATCAGCTACTCATGCTTTCTTATCTGG, 0.48.
For GACCGAGGGTTAAGCTCATGCTTTCATCTC the value was -0.935; for AATTGTTCAACATGGTGACTCTAGTCAATG, 1.06; for CTGGAAAGGGCTTCAGAGTCGATAGTCCAA, 1.14.
To CATCAGATACCTACTCTGCTCTTCTCTCTG belongs -1.22; to AATGCAGCCTTATCTTCCAGCCCTGTCTCT, -0.992.
As for TAGTGCCTGGATCTTGGAACAGGTCTCAGG, the binding signal (log2 normalized intensity) is 0.797.
Take GTGGACTTTGCCTGCCCATCCCGTGGACTC: the binding signal (log2 normalized intensity) was found to be 4.49.
In the case of CCCACCTTGTTATCTTGTCTCTTCTTGTAC, the binding signal (log2 normalized intensity) stood at 2.13.
To AACTGAGTTACGTAATGTGTCCCCACATCT belongs 2.15.
For ATCCCCGCTCCCCTCCCCCACCCGCGGTCC the value was 6.49; for CTCGGGGCCAGGTGGGCTGCTCCCAGTGCC, -1.23.
With GAAGGTTATTAGTGATAAGCAGAGGATGGG, the binding signal (log2 normalized intensity) was -1.1.
To GATCAGGCAAGTGGTCATGTAGGTGTCTCA belongs 1.09; to CCTGGTGGACCCAGCTGGTAAGTGCAAGGC, 1.15.
To AAGGAGAAGGCTCCCAAGGTATCCTCCTAG belongs -1.41; to TCCCTTCCCGGGGAGTCCTGGGCGTTGCTC, 0.266.
To CAGCCCAGTGGTAATGGAGCTGAAACTATA belongs -1.22.
Turning to AGGGATTTCAGTGCCCTCATAAGAGACTTT, the binding signal (log2 normalized intensity) turned out to be 2.22.
As to AAGGAAGGAGGGAGGCAGGGAGACAACCTG, the binding signal (log2 normalized intensity) was -1.25.
For CTTCATTCCCGAGTGCCTTTAGAGGGCAAG, the binding signal (log2 normalized intensity) is 2.07.
On to CAAACAAGAAAGTTGAGGTGAATACACAGC, for which the binding signal (log2 normalized intensity) is -1.27.
To GCTCTTTACCCCTGCAAGGATTGATCAGCA belongs 2.1; to CTTTATGACTTGGGTGCACCAATGATCAAA, 1.2.
For CATAGACCCTGTTGGTTTCTGGGATTTGTA the value was 1.07.
For TCTGATGTACCCAGCACTGTCAGCAGGGGG the value was -1.3; for TGTCGCTATCTTATCTGGGCCAGGTATTTG, 1.21.
Turning to CTTGTGGCTGGGTGATCTGGGAAACAGGCT, the binding signal (log2 normalized intensity) was -1.33.
To ATTCCCTCCAGCAGGGGATGCCCTTTGACC belongs 9.35.
To GGACTTTGGCCCTCAGCCCAATGTGGTAGG belongs 6.09; to TAGTCTCCTATCAAGAAAATAGAAGTGCTA, -1.27; to TTTTTTCTCTCCCCTTTTAATACAAGTATT, 1.92.
To TAGGTTTGTGAGTCCAAAGGTCAGCCGGGG belongs 8.36; to CACCATTCCTGGCAGCCAGCTGGTTTGCCT, -1.07; to GCTAAGATGTAGCAAGAATGTAAATAGCTA, -1.25.
For CTGACCTTAGACCCTCAGGCTCCACCGGAT, the binding signal (log2 normalized intensity) is 2.04.
For GCGTGAGTTTGCTGTCTTGACTTGGTTCGG the value was 1.41; for TGCCTCTCTGAACCTTCCTTAGAGAATGCT, -1.28.
For CAGGAATGTTTCCTCTCCCAGCCCCTAGCC the value was 2.6; for ACTTTGAAGGCCCCAATTGCCAAGGGGGTG, -1.25; for GGTATTCTTTCATCCCTCTCCCGCCTCTTG, 1.35.
For AGGGAAGAGGCAAGGAAAGATAAATAGTGA the value was -1.28; for TGGTTTTGTAAATATAGGATCATGTTGTCT, 1.84; for TGTTGGGGAATCAGTCCATAAATACACAAT, -1.04.
As to TAATGAGTGCTATCCCTGGAGCCTTAGAAG, the binding signal (log2 normalized intensity) was -1.46.
To AACGGTTCAAAGGACAGACTTTGGACCTGG belongs 7.98; to TCCACACCCCCCACTCTTCATATCTTCCCA, 3.03; to AAGGCCAAACACGGACAGGCAGGCCCAGAC, -1.41.
For TACATTGCATATCAGCATGGCTGCAGAGAA the value was -1.33; for ATACTCCAAGCCTAGAAAAACAACTAAAGG, -1.3.
To ATCGGCTTCCCTGGTCCTCAGGCCTTTGGA belongs 1.15.
On to CCCTACGTAAATGCACGGAAGCCTTCCCCG, for which the binding signal (log2 normalized intensity) is -1.49.
To GAGTTTAAGGTTGTACTTTGGAGTTTACTT belongs 4.42.
To GAAAAGAAAAAACCCATCCACCCATCCAAA belongs 2.76; to AACCTTTGATCATTCCTGCACAGGACTGCT, 3.55; to TCACCCGATAAGCTGACCCCAAAACCCCCA, 6.1.
As to ACACAAAGGCAGAGCACTAAATCTCTCCTA, the binding signal (log2 normalized intensity) was -1.39.
For AGTCCCAATCCCCCATCTATTTACAAAAGA the value was 2.89; for TAAAACTAGGAGAGTCCGGGGCAAACAAGG, -1.09; for AACAACTGCCACTTATTGTGTTATGTACTT, 1.82.
Consider AGTTGGTGTTTTCCGGGGGCGGTTTTTCCA, for which the binding signal (log2 normalized intensity) came out at 1.54.
As for CCCTTCGCTAGAGCAAATACAGCACTCAAA, the binding signal (log2 normalized intensity) is -1.31.
To AAAAAATGGGCAAAGGACAATAATGAATAA belongs -0.651.
For AGCAGGTTATCTAATGGAGAGGATGGGGAC the value was -1.23; for CTGCATTCCAGCTCAATCAAGGACTGGGCT, -1.09.
